Data on 63 compounds can be found in paper PMC6919601, “Identification of Plasmodium dipeptidyl aminopeptidase allosteric inhibitors by high throughput screening” (PLoS ONE, 2019).

In all, about 110,000 compounds went through this assay and about 230 (0.21%) showed an effect of 50% or more. This is one part of the list.
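Further: 30 min substrate incubation versus DMSO and 10 µM JCP410 controls.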

The assay deals with DPAP1 (Plasmodium falciparum, UniProt Q8IIJ9). As to the kind of experiment: primary screen, percent inhibition; read by cleavage of a fluorogenic dipeptide substrate; higher = more effect of the substance. More on the design: species or system P. falciparum D10 trophozoite lysates; single well.
DPAP1, sequence (Q8IIJ9 whole entry, looked up): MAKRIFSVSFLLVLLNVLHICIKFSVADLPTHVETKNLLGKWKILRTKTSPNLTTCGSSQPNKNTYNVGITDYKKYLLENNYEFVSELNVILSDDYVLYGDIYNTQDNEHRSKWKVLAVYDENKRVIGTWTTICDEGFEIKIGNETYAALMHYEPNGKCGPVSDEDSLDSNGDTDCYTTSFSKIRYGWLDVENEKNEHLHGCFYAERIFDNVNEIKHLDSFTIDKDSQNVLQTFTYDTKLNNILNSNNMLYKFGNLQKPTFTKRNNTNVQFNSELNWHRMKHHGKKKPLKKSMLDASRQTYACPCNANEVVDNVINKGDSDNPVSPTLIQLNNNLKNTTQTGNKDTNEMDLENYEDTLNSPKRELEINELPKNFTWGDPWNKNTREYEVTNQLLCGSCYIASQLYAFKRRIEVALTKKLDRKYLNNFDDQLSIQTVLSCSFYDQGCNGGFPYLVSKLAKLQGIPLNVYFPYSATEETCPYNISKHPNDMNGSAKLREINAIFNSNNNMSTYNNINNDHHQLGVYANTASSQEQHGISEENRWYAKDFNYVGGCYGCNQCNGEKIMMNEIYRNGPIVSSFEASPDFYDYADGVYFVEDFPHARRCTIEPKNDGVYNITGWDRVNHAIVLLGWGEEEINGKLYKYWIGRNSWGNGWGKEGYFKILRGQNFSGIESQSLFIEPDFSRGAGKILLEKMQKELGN
As for `CC1CN(C(=O)Cn2cc(S(=O)(=O)Cc3ccc(C(F)(F)F)cc3)c3ccccc32)CC(C)O1` (stereo not drawn), the “% Inhibition @ 10 uM” value is -2.55%. As for `CCn1cc(/C=C(\NC(=O)c2ccccc2)C(=O)N2CCOCC2)c2ccccc21`, the figure is -3.52%. As for `O=C(c1cc(=O)c2cc(Cl)ccc2o1)N(Cc1ccccc1)Cc1ccco1`, the figure is -3.24%; as for `COc1cc2nc(N3CCNCC3)nc(N)c2cc1OC`, -0.424%. For the compound `COc1ccc(C(=O)c2ccc(OC)c(N)c2)cc1N`, the “% Inhibition @ 10 uM” value is listed as -4.58%.

With `CCCN(CCC)C(=O)Cn1c(=O)n(Cc2ccccc2)c(=O)c2c3c(sc21)CN(C(C)=O)CC3`, the “% Inhibition @ 10 uM” value came to 3.32%. As for `CCc1cccc(C)c1NC(=O)COc1ccc(Cl)cc1Cl`, the figure is -3.67%; as for `CCOC(=O)c1ccc(CN(CC)CC)cc1`, -5.51%; as for `Cc1ccc(S(=O)(=O)c2nc(S(C)(=O)=O)sc2NCc2ccc3c(c2)OCO3)cc1`, 2.76%. For the compound `CCN(CC)CC/N=c1\c(N)c(O)oc2ccccc12`, the “% Inhibition @ 10 uM” value is listed as -0.687%. As for `COc1ccccc1OCCn1cc(C(=O)O)c2ccccc21`, the figure is 5.5%; as for `CCc1cc2c(=O)c(-c3ccc4c(c3)OCCCO4)c(C)oc2cc1OCC#N`, 0.528%. To `CCN(CC)C(=O)Cn1ncc2c3ccccc3n(C)c2c1=O` belongs -7.36%. As for `CCOC(=O)N1CCN(C(=O)CSc2nnc(CNC(=O)c3cccs3)o2)CC1`, the figure is -3.62%; as for `Cc1cc(C)n(C(=O)c2cccc(F)c2F)n1`, 3.16%.

Consider `Oc1ccccc1Nc1nc(N2CCOCC2)c2ccccc2n1`, for which the “% Inhibition @ 10 uM” value is -4.49%. Turning to `O=C(O)CCc1ccc(-c2ccc(F)cc2)n1CC1CCCO1` (stereo not drawn), the “% Inhibition @ 10 uM” value is -0.0678%. For the compound `Cc1cc(Cl)ccc1OCCCC(=O)NCc1ccncc1`, the “% Inhibition @ 10 uM” value is -7.56%. To `N#CCNC(=O)C(CC1CCCCC1)C(=O)Nc1cccnc1` (stereo not drawn) belongs -0.214%; to `COc1ccc(CNC(=O)c2cc3c(O)nc4ccc(C)cc4c3s2)cc1`, 1.72%.

Take `CCOc1ccccc1CNC(=O)C(CC)n1nc(CC)n2c(cc3oc(C)cc32)c1=O` (stereo not drawn): the “% Inhibition @ 10 uM” value is -5.87%. As for `CCOc1ccc(N2CC(C(=O)Nc3ccc(CC)cc3)CC2=O)cc1` (stereo not drawn), the figure is 2.44%. As for `C=Cc1ccc(Cn2c(=O)cc(C)c3c(C)nn(-c4cccc(F)c4)c32)cc1`, the “% Inhibition @ 10 uM” value was found to be 0.0855%. Turning to `CC(=O)c1cc(-c2ccccc2)n(CC(=O)N2CCC(Cc3ccccc3)CC2)c1C`, the “% Inhibition @ 10 uM” value was 1.47%. As for `O=C(O)c1cc(S(=O)(=O)N2CCCCC2)c(Cl)cc1Cl`, the figure is -0.546%. As for `CN1C(=O)N(C)C2(CC1(C)C)CC(C)(C)N(C)C(=O)N2C`, the figure is -3.27%.

As to `O=C(CCC1COc2ccccc2O1)Nc1ncccc1O` (stereo not drawn), the “% Inhibition @ 10 uM” value is listed as -5.41%. For `CCn1nc(-c2ccccc2C)nc2c(=O)n(C)c(=O)nc1-2`, the “% Inhibition @ 10 uM” value is on record as 6.58%. To `CC(C)(C)c1ccc(C(=O)Nc2ccccc2O)cc1` belongs -2.09%; to `COc1ccccc1CNC(=O)C1c2ccccc2C(=O)N(C2CCCC2)C1c1cccs1` (stereo not drawn), 0.0281%.

On to `Cc1ccc2c(c1)c1c3n2CCCN=C3CCC1`, for which the “% Inhibition @ 10 uM” value is 3.05%. As for `O=C1c2n[nH]c(-c3ccccc3O)c2C(c2ccc(Cl)cc2)N1Cc1ccncc1` (stereo not drawn), the figure is 6.34%. Turning to `O=C(Cn1ccc2cc(S(=O)(=O)N3CCCCC3)ccc21)NCCc1c[nH]c2ccccc12`, the “% Inhibition @ 10 uM” value is given as 12.4%. To `CCOC(=O)N1CCC(NC(=O)C2CCCN(S(=O)(=O)c3cccnc3)C2)CC1` (stereo not drawn) belongs -2.83%; to `COc1ccc(N2C(=O)/C(=C\c3ccoc3)C(=O)NC2=S)cc1`, 8.27%; to `CCCCOc1ccccc1C1C(C#N)=C(N)OC2=C1C(=O)CC(C)(C)C2` (stereo not drawn), 2.36%. As to `Cc1ccc(S(=O)(=O)NCc2ccc(C(=O)NC(C)C34C[C@H]5C[C@@H](C3)C[C@@H](C4)C5)cc2)cc1` (stereo partly drawn), the “% Inhibition @ 10 uM” value is -2.72%. To `CCCCn1c(CNC(=O)CCC)nc2ccccc21` belongs 1.94%; to `COc1ccc(CN2CCN(c3ccc(F)cc3)CC2)cc1Br`, -2.92%; to `COc1cc(CCNCc2c(C(=O)O)n(C)c3cc(C)ccc23)cc(OC)c1OC`, 0.16%. To `C=CCOc1ccc(/C=C2\C(=O)N(C)C(C)=C2C(=O)OC)cc1OC` belongs -3.4%. For `CC(C)(C)NS(=O)(=O)c1ccccc1Cl`, the “% Inhibition @ 10 uM” value is on record as -3.38%. As for `COc1ccc(CN2CCN(C(=O)c3cc(OC)c(OC)c(OC)c3)CC2)cc1OC`, the “% Inhibition @ 10 uM” value was 2.03%. As for `COc1ccc(CCNC(=O)Cc2c(C)c3ccc(O)cc3oc2=O)cc1`, the figure is -0.808%. To `O=C(C1CCN(c2ncnc3c2nc2n3CCCCC2)CC1)N1CCOCC1` belongs 0.00353%; to `CC1CCN(C(=O)Nc2noc3c2COc2ccccc2-3)CC1`, -3.47%; to `Cc1cc(C)nc(-n2nc(C)c3c2NC(=O)CC3c2ccccc2C)n1` (stereo not drawn), -2.88%. Regarding `CCCCNc1oc(/C=C/c2ccc(F)cc2)nc1C#N`, the “% Inhibition @ 10 uM” value stood at 4.13%. As for `COC(=O)c1sccc1NC(=O)C1=Cc2sc3c(c2CS1)CCCC3`, the figure is 6.31%; as for `Cn1nc(-c2ccccc2F)c2cc(C(=O)N3CCN(Cc4ccccc4)CC3)sc21`, 3.63%. As for `C=CCn1cc(/C=C2/NC(=O)N(Cc3ccccc3F)C2=O)c2ccccc21`, the figure is -0.0626%; as for `CCOc1ccccc1NC(=O)CN(c1ccc(C)cc1)S(=O)(=O)c1ccc(C)cc1`, 5.28%.

Consider `COCCNC(=O)c1cc2c(=O)n3ccccc3nc2n1C`, for which the “% Inhibition @ 10 uM” value turned out to be 1.84%. For the compound `COc1cc(CN(C)C2CCN(C)CC2)cc(Br)c1O`, the “% Inhibition @ 10 uM” value is listed as -2.7%. As for `Clc1cccc(N2CCN(Cc3ccc(Cl)cc3Cl)CC2)c1`, the figure is -1.93%; as for `COc1ccc(CNC(=O)CN(C2CCCCC2)S(C)(=O)=O)cc1`, 0.408%; as for `COc1ccccc1N1CCN(Cc2ccc(SC)cc2)CC1`, 1.63%. To `O=C(Nc1nnc(-c2ccncc2)s1)C(=O)c1c[nH]c2ccccc12` belongs 3.72%; to `Cn1c2ccccc2c2cc(C(=O)O)ccc21`, 2.46%; to `Cc1noc(NS(=O)(=O)c2ccc(NC(=O)C34CC5CC(CC(C5)C3)C4)cc2)c1C`, 0.5%. As for `CCCc1ccc(-c2ccc(OC(F)(F)F)cc2)nc1`, the figure is -1.59%; as for `N#CC1=C(N)Oc2[nH]nc(-c3cccs3)c2C1c1cccnc1` (stereo not drawn), 5.18%.

As for `Cc1ccc(S(=O)(=O)Nc2cccc(C(=O)NCCC(C)C)c2)cc1`, the “% Inhibition @ 10 uM” value is listed as 3.49%.
